This note sets out measurements from the RNAGym collection of RNA variant scans (doi:10.1093/nar/gkz1192).

The source gives no read counts; variants with many changes may rest on few reads.

First the molecules themselves.
B1: CPEB3 Ribozyme (parent)
chain: UAACAGGGGGCCACAGCAGAAGCGUUCACGUCGCAGCCCCUGUCAGAUUCUGGUGAAUCUGCGAAUUCUGCUGUAUAUCUC

The series covers variants of B1. The series can be described thus: self-cleavage, relative activity (ratio to wild type); higher = more cleavage; in vitro, sequencing. Summed up:
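Relative activity was defined as the cleaved/total read fraction for a variant divided by the same fraction for the unmutated ribozyme. CPEB3 self-cleaving ribozyme libraries were made by rounds of error-prone PCR, barcoded, and transcribed in vitro with T7 RNA polymerase for 5 hours at 37°C, and cleavage ran through transcription plus a 15 min DNase I step before EDTA. Illumina sequencing of template-switched reverse transcripts gave the reads, and DNA sequencing mapped the barcodes. Averages come from three batches, using variants with at least 5 reads.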
With UAACGGGGGGCCACCGCAGAGGCGCUCACGUCGCAGCCCCUGUCUGAUUCUGGUGAAUCUGCGAAUUCUGCUGUAUAUCUC [A5G A15C A21G U25C A45U], the self-cleavage amounted to 0.58.

With UAACGGGGGGCCACGGCGGAAGCGUUCACAUCGCAGCCCCUGUCAGAUUCUGGUGAAUCUGCGAAUUCUGCCGUAUAUCUC [A5G A15G A18G G30A U72C], the self-cleavage worked out at 0.29.

Regarding UAACGGGGGGCCACGGCAGAGGCGUUCACGUCGCAGCCCCUGUCAGACUCUGGCGAAUCUGCGAAUUCUGCUGUAUAUCUC [A5G A15G A21G U48C U54C], the self-cleavage is 0.

Take UAACGGGGGGCCACGGCUGGAGCGUUCACGUCGCAGCCCCUGUCAGAUUCUGGUGAAUCCGCGAGUACUGCUGUAUAUCUC [A5G A15G A18U A20G U60C A65G U67A]: the self-cleavage was found to be 0.09.

For UAACGGGGGGCCACGGCAGGAGCGUUCGCGUCGCAGCCCCUGUCGGAUUCUGGUGAAUCUGCGAAUUCUGCUGUAUAUCUC [A5G A15G A20G A28G A45G], the self-cleavage is 0.44.

Regarding UAACGGGGGGCCACCGCAGAAGCGUUCACGUCGCAGCCCCUGUCAGAUUCUGGCGAAUCAGCGAAUUCUGCUGUAUAUCUC [A5G A15C U54C U60A], the self-cleavage was found to be 0.05.

For the variant UAACGGGGGGCCUCAGCAGAAGCGUUCACGUCGCAGCCCCUGUCAGAUUCUGGUGAAUCUGCGAAUUCAGCUGUAUAUCUC [A5G A13U U69A], the self-cleavage turned out to be 0.48.

UAACGGGGGGCCACGGCAGAAGCGUUCACGUCGCAACCCCUGUCAGAUUCUGGUGAAUCUGGGAAUUCUGCUGUACAUCUC [A5G A15G G36A C62G U76C]: the self-cleavage amounted to 0.42.

With UAACGGGGGGCCACGGCAGAGGCGUUCACGUCGCAGCCCCUGUCAGAUUCAGGUGAAUCUGCGAAUUCUGCUGUAGAUCUC [A5G A15G A21G U51A U76G], the self-cleavage was found to be 0.56.

In the case of UAACGGGGGGCCACGGCAGAAGCGUUCGCGUCGCAGCCCCCGACAGAUCCUGGUGAAUCUGCGAACUCUGCUGUAUAUCUC [A5G A15G A28G U41C U43A U49C U66C], the self-cleavage worked out at 0.31.

For UAACGGGGGGCCACGGCAGAAGCGUUCGCGUCACAGCCCCUGUCAGAUUCAGGUGAAUCUGCGAAUUCUGCCGUAUAUCUC [A5G A15G A28G G33A U51A U72C], the self-cleavage stood at 0.09.

Turning to UAACGGGGGGCCACGGCAGAGGCGUUCACGUCGCAGUCCCUGUCAGAUUCUGGUGAAUCUGCGAAUUCUGCUGUAUACCUC [A5G A15G A21G C37U U78C], the self-cleavage was determined as 0.79.

As for UAACGGGGGGCCACGGCAGUAGCGUUCACGUCGCAGCCCCUGUCAGAUUCUGGCGAUUCUGCGAAUUCUGCUGUAUAUCUC [A5G A15G A20U U54C A57U], the self-cleavage came to 0.2.

For UAACGGGGGGCCACCGCAGAAGCGCUCACGUCGCAGCCCCUGUCAGAUUCUGGUGAAUCUGCGAAUUCUGCCGUAUAUCUC [A5G A15C U25C U72C], the self-cleavage amounted to 0.11.

Turning to UAACGGGGGGCCUCAGCAGAAGCGUUCACGUCGCAGCCCCUGUCAGAUUCUGGUGAAUCUGCGAACUCUGCUGUAUAUCUC [A5G A13U U66C], the self-cleavage worked out at 0.26.

As for UAACGGGGGGCCACGGCAGAAGAGUUCACGUCGCAGCCCCUGUCAGAUUCUGGUGAAUCUGCGAAUUCCGCUGUAUAACUC [A5G A15G C23A U69C U78A], the self-cleavage amounted to 0.13.

For UAACGGGGGGCCACGGCUGAAGCGUUGACGACGCAGCCCCUGUCAGAUUCUGGUGAAUCUGCGAAUUCUGCUGUAUAUCUC [A5G A15G A18U C27G U31A], the self-cleavage was determined as 0.07.

For the variant UAACGGGGGGCCACGGCAGAAGCGUUCACGUCGCAGCGCCUGUCAGAUUCUGGUGAAUCUGCGAAUUCUGCUGUGUAUCUC [A5G A15G C38G A75G], the self-cleavage was determined as 0.19.

With UAACGGGGGGCCACGGCAGAAGCGUUUACGUCGCAGCCCCUAUCAGAUUCUGGUGAGUCUGCGAAUUCAGCUGUAUAUCUC [A5G A15G C27U G42A A57G U69A], the self-cleavage amounted to 0.02.

Turning to UAACGGGGGGCCACGGCGGAAGCGUUCACGUCGCAGCCCCUGUCAGAUUCUGGUGAAUCUGCGAAUUCUGCUGUAUACCUC [A5G A15G A18G U78C], the self-cleavage is 0.09.

As for UAACGGGGGGCCACGGCAGAAGCGUUCACGUCGCAGCCCCUGUCAGAUUCUGGUGAAUCUGCGUAUUCCGCUGUAUAUCUC [A5G A15G A64U U69C], the self-cleavage was found to be 0.27.

For the variant UAACGGGGGGCCACGGCAGAAGCGUUCACGUCGCAGCCCCUGUCUGACUCUGGUGAAUCUGCGAAUCCUGCUGUAUAUCUC [A5G A15G A45U U48C U67C], the self-cleavage came out at 0.16.

Consider UAACGGGGGGCCUCAGCAGAAGCGUUCACGUCGCAGCCCCUGUCAGAUUCUGGUGAAUCUGCGAAUUCUGCUGUAUACCUC [A5G A13U U78C], for which the self-cleavage worked out at 0.88.

Take UAACGGGGGGCCACCGCAGAAGCGUUCACGCCGCAGCCCCUGUCAGAUUCUGGUGAAUCUGCGAAUUCUGCUGUAUAACUC [A5G A15C U31C U78A]: the self-cleavage was found to be 0.99.

For the variant UAACGGGGGGCCACGGCAGAAGCGUUCACAUCGCAGCCCCUGUCAGAUUACGGUGAAUCUGCGAAUUCUGCUGUAUAUCUC [A5G A15G G30A C50A U51C], the self-cleavage stood at 0.3.

Take UAACGGGGGGCCACGGCAGAUGCGUACACGUCGCAGCCCCCGCCAGAUUCUGGAGAAUCUGCGAAUUCUGCUGUAUAUCUC [A5G A15G A21U U26A U41C U43C U54A]: the self-cleavage worked out at 0.

Take UAACGGGGGGCCACGGCAGAGGCGUACACGUCGCUGCCCCCGUCAGAUUCUGGUGAAUCUGCGACUUCUGCUGUAUAUCUC [A5G A15G A21G U26A A35U U41C A65C]: the self-cleavage is 0.08.

On to UAACGGGGGGCCUCAGCAGAAGCGUUCACGUCGCAGCCCCUGUCAGAUUCUGGUGAACCUGCGAAUUCUGCUGUAUAUCUC [A5G A13U U58C], for which the self-cleavage was 0.58.

In the case of UAACGGGGGGCCACGGCAGAAGCGUUCACAUCGCAGCCCCUGUCAGAUUCCGGUGAAUCAGCGAAUUCUGCUGUAUAUCUC [A5G A15G G30A U51C U60A], the self-cleavage worked out at 0.2.

In the case of UAACGGGGGGCCACGGCAGGAGCGUUCACGUAGGAGCCCCUGUCAGAUUCUGGUGAAUCUGCGAAUUCUGCUGUAUAUCUC [A5G A15G A20G C32A C34G], the self-cleavage amounted to 0.85.

In the case of UAACGGGGGGCCACCGCAGAAGCGUUCACGUCUCAGCCCCUGUCAGAUUCUGGUGAAUCUGCGAAUUCUGCUUUAUAUCUC [A5G A15C G33U G73U], the self-cleavage came out at 0.45.

Take UAACGGGGGGCCACGGCAGAAGCGUUCACGUCGCUGCCCCUGUCAGAUUCUGGUGAAUCUGCGAACUUUGCUGUAUAUCAC [A5G A15G A35U U66C C68U U80A]: the self-cleavage amounted to 0.28.

Consider UAACGGGGGGCCACCGCAGAAGCGUUCACGUCGCAGCCCCUGUCAGAUUCAGGUGUAUCCGCGAAUUCUGCUGUAUAUCUC [A5G A15C U51A A56U U60C], for which the self-cleavage came out at 0.12.

Regarding UAACGGGGGGCCACGGCAGAAGCGUUCUCGUCGCAGCCCCUGUCGGAUUCAGGUGAAUCUGCGAAUUCUGCUGUAUAUCUC [A5G A15G A28U A45G U51A], the self-cleavage amounted to 0.52.
